# Laboratory results published in PubChem BioAssay (NCATS).
# Inconclusive means that the source gave no clear call. Such entries were picked first, then a sample of the others. For some of these results: Potencies beside an inconclusive call are fits to weak or partial responses and may not hold up. Active and inactive are the calls of the source. Unless noted, the call rests on the fitted dose curve; in most records, active means well fitted curve in the direction sought with a large enough effect; inconclusive means small, poorly fitted or top-dose-only effect, or another doubt; inactive means no such curve, though single readings can be large; an effect the other way counts as inactive or inconclusive.
# Key:
# [1] = target: DNA polymerase eta (Homo sapiens) (UniProt Q9Y253); experiment: qHTS for Inhibitors of Polymerase Eta: Confirmatory Assay for Cherry-picked Compounds (AID 720502); conditions: Pol eta primer extension, TAMRA/BHQ fluorescence, 10 min; further: potency means the concentration at half of the fitted maximal effect
# In short: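 10 nM Pol eta + cpd, 15 min RT; start w/ 50 nM final primer/TAMRA-reporter/BHQ-2-template substrate; kinetic read 0 and 10 min, ex 525/em 598 nm. Buffer-only wells = negative control.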
# [2] = target: Rap guanine nucleotide exchange factor 3 (Homo sapiens) (UniProt O95398); experiment: Confirmatory qHTS for antagonist of cAMP-regulated guanine nucleotide exchange factor 3 (EPAC1) (AID 1645880); conditions: EPAC1 Rap1B-BODIPY-GDP exchange, fluorescence; series mostly up to 115 µM; further: nearly all actives have a fitted effect of over 55% in size; further: potency means the concentration at half of the fitted maximal effect;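 on activity, negative = inhibition: plate controls were DMSO only for no effect and full effect of the ATA control for full effect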
# In short: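 Nucleotide exchange uses 100 nM EPAC1, 250 nM RAP1B-BODIPY-GDP and 50 uM GDP, with compounds in a concentration-titration series. After 5 min at room temperature, fluorescence (480 nm ex/540 nm em) is read every 5 min for 30 min. Data are normalized to control ATA and DMSO.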
# [3] = target: Ubiquitin carboxyl-terminal hydrolase 1 (Homo sapiens) (UniProt O94782); experiment: Inhibitors of USP1/UAF1: Pilot qHTS (AID 504865); conditions: purified USP1/UAF1, Ub-rhodamine cleavage fluorescence; series mostly up to 114 µM;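 further: rhodamine fluorescence freed from ubiquitin-rhodamine substrate followed over time; potency means the concentration at half of the fitted maximal effect; nearly all actives have a fitted effect of over 35% in size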
# In short: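 Enzyme-free wells gave the negative control, while test wells held 1nM USP1/UAF1 preincubated with compound for 15 min at room temperature. Ub-Rho at 150nM final started the reaction, and fluorescence at 480/540 nm was recorded kinetically.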
# [4] = target: Rap guanine nucleotide exchange factor 4 (Homo sapiens) (UniProt Q8WZA2); experiment: Confirmatory qHTS for agonist of cAMP-regulated guanine nucleotide exchange factor 4 (EPAC2) (AID 1645884); conditions: EPAC2 GEF activity, Rap1B-BODIPY-GDP fluorescence; series mostly up to 154 µM;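 further: nucleotide exchange releases bodipy-GDP from Rap1 and this lowers its fluorescence; potency means the concentration at half of the fitted maximal effect; nearly all actives have a fitted effect of over 65% in size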
# [5] = target: Rap guanine nucleotide exchange factor 4 (Homo sapiens) (UniProt Q8WZA2); experiment: Confirmatory qHTS for antagonist of cAMP-regulated guanine nucleotide exchange factor 4 (EPAC2) (AID 1645885); conditions: EPAC2 Rap1B-BODIPY-GDP exchange fluorescence, biochemical; activity change, negative = inhibition: at 114 µM (top of the series) unless noted; series mostly up to 114 µM; further: nearly all actives have a fitted effect of over 25% in size; further: potency means the concentration at half of the fitted maximal effect; on activity change, negative = inhibition: on the % scale 0 is the no-effect control and ±100 the full control effect
# [6] = NFAT Signaling Pathway (AID 444; active means well fitted curve in either direction with a large enough effect, not every such curve was filed as active; inconclusive means small, poorly fitted or top-dose-only effect, or another doubt;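 further: carbachol stimulus at about its EC50 of 1 µM final; on the % scale 0 is the no-effect control and ±100 the full control effect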); conditions: Jurkat NFAT-bla M1, carbachol, beta-lactamase ratio, 5 h; at 7.69 µM (top of the series) unless noted
# In short: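 Jurkat cells carrying an NFAT-driven β-lactamase reporter and co-transfected muscarinic M1 receptor were treated with compound plus carbachol (1 uM final, an EC50 level) for 5 h at 37 °C. CCF4 loading followed for 1 h at RT; 460/530 nm ratio gave %activity.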
# [7] = Stat Signaling Pathway (AID 446; active means well fitted curve in either direction with a large enough effect, not every such curve was filed as active; inconclusive means small, poorly fitted or top-dose-only effect, or another doubt;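 further: ME-180 cervical cancer cells given 40 pM IL-6 alongside compound; SIE-controlled beta-lactamase reporter measured as 460/530 nm FRET emission ratio; top concentration of the series differs between compounds; on the % scale 0 is the no-effect control and ±100 the full control effect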); conditions: ME-180 SIE beta-lactamase reporter, IL-6 stimulated, 5 h; at 38 µM (top of the series) unless noted
# In short: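 Reporter line: ME-180 cervical carcinoma, SIE-beta-lactamase. Treatment: compound with 40 pM IL-6, 5 hrs, 37 C, in low-serum OPTI-MEM with 10 mM HEPES pH 7.3. Detection: 460/530 nm fluorescence.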
# [8] = qHTS Assay for Identification of Small Molecule Agonists for Hypoxia Response Element Signaling Pathway (AID 914; active means well fitted activation curve with a large enough effect in the signal ratio, with a control signal flat, not every such curve was filed as active; inconclusive means small, poorly fitted or top-dose-only effect, or effect the other way, or a change in a side signal; the % refers to the signal ratio; further: potency means the concentration at half of the fitted maximal effect); conditions: ME-180 (cervical carcinoma) HRE-bla reporter, beta-lactamase ratio, CoCl2, 17 h; activation: active compounds read high
# In short: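 Reporter activity (beta-lactamase, CCF4 460nm/530nm ratio) in HRE-bla ME-180 cells is recorded after 17 h compound exposure with EC50 CoCl2 at 37 degrees Celsius. AC50 values come from titration data.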
# [9] = target: DNA polymerase iota (Homo sapiens) (UniProt Q9UNA4); experiment: qHTS for Inhibitors of Polymerase Iota: Confirmatory Assay for Cherry-picked Compounds (AID 720496); conditions: Pol iota primer extension, TAMRA/BHQ fluorescence; further: potency means the concentration at half of the fitted maximal effect
# In short: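 Step 1: 10 nM Pol iota with compound, 15 min, room temperature. Step 2: 50 nM final quenched DNA substrate added. Step 3: fluorescence (ex 525, em 598 nm) read at 0 and after 10 min.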
# [10] = target: Rap guanine nucleotide exchange factor 3 (Homo sapiens) (UniProt O95398); experiment: Confirmatory qHTS for agonist of cAMP-regulated guanine nucleotide exchange factor 3 (EPAC1) (AID 1645881); conditions: EPAC1 Rap1B BODIPY-GDP exchange fluorescence; activation: at 154 µM (top of the series), 100% = cAMP control response; further: nearly all actives have a fitted effect of over 75% in size; further: potency means the concentration at half of the fitted maximal effect;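 on activation: EPAC1 catalysed release of BODIPY-GDP from Rap1B seen as fluorescence loss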
# [11] = target: DNA polymerase kappa (Homo sapiens) (UniProt Q9UBT6); experiment: qHTS for Inhibitors of Polymerase Kappa: Confirmatory Assay for Cherry-picked Compounds (AID 720501); conditions: purified Pol-kappa, fluorescent strand-displacement substrate; further: potency means the concentration at half of the fitted maximal effect
# In short: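 Human Pol-kappa, dispensed at 10 nM, was preincubated with compounds for 15 min at room temperature. Reactions were started with primer/template substrate (50 nM final) carrying a TAMRA reporter strand and BHQ-2-quenched template, and fluorescence (ex 525/em 598 nm) was read at 0 and 10 min.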
# [12] = target: RecQ-like DNA helicase BLM (Homo sapiens) (UniProt P54132); experiment: qHTS for Inhibitors of WRN Helicase: BLM Helicase Counterscreen for WRN Inhibitors (AID 720503); conditions: Recombinant BLM helicase DNA unwinding, red fluorescence; further: potency means the concentration at half of the fitted maximal effect; nearly all actives have a fitted effect of over 60% in size
# In short: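 Reactions were started with 100 nM DNA substrate and 2 mM ATP (final) after compound and 1 nM BLM stood 15 min at room temperature in Tris-HCl pH 8.0 buffer with NaCl, MgCl2, DTT and Tween-20. Two red-fluorescence reads 15 min apart were normalized against DMSO and no-enzyme wells.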
# [13] = target: Rap guanine nucleotide exchange factor 3 (Homo sapiens) (UniProt O95398); experiment: Counterscreen qHTS for agonist of cAMP-regulated guanine nucleotide exchange factor 3 (EPAC1) (AID 1645889); conditions: EPAC1 Rap1B-BODIPY-GDP exchange, fluorescence; activation: at 154 µM (top of the series) unless noted; further: nearly all actives have a fitted effect of over 40% in size; further: potency means the concentration at half of the fitted maximal effect; on activation: % of control where 0% means no effect
# In short: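 Measured: fluorescence of BODIPY-GDP bound to Rap1B, which falls as exchange proceeds. Conditions include 50 uM competing GDP, 5 and 30 min reads, and a later cAMP challenge for antagonist detection.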
# [14] = target: Bifunctional 3'-5' exonuclease/ATP-dependent helicase WRN (Homo sapiens) (UniProt Q14191); experiment: qHTS for Inhibitors of WRN Helicase: Confirmatory Assay for Cherry-picked Compounds. (AID 720497); conditions: WRN helicase DNA unwinding, fluorescence kinetic; further: potency means the concentration at half of the fitted maximal effect; nearly all actives have a fitted effect of over 65% in size
# In short: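 Compound and 20 nM WRN incubated 15 min, RT. Forked duplex (100 nM) plus ATP (2 mM) added. Fluorescence monitored kinetically and normalized to controls.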
# [15] = qHTS for Inhibitors of WRN Helicase: Thiazole Orange DNA Binding Counterscreen (AID 720499); conditions: thiazole orange DNA binding displacement, fluorescence; series mostly up to 57.1 µM;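 further: drop in dye fluorescence marks compound binding to DNA; on the % scale 0 is the no-effect control and ±100 the full control effect; nearly all actives have a fitted effect of over 60% in size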
# In short: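 Thiazole orange displacement from unlabeled DNA (50 nM DNA, 100 nM dye) was monitored by fluorescence, ex 480/em 530 nm, following 15 min room-temperature incubation with pintool-dispensed compounds.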
# [16] = target: Tyrosyl-DNA phosphodiesterase 1 (Homo sapiens) (UniProt Q9NUW8); experiment: Confirmation Assay for Inhibitors of Tyrosyl-DNA Phosphodiesterase (TDP1) (AID 489007); conditions: recombinant human TDP1 enzymatic activity, dose-response; further: potency means the concentration at half of the fitted maximal effect; nearly all actives have a fitted effect of over 40% in size
# In short: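 Recombinant human Tdp1 (1 nM final), expressed in E. coli, preincubated 15 min with compound. Then 15 nM 5'-biotin/3'-phosphotyrosine-FITC DNA substrate added for 5 min at room temperature. AlphaScreen beads (10 ug/ml) added for 10 min; cleavage gives signal loss.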
# [17] = target: Tumor susceptibility gene 101 protein (Homo sapiens) (UniProt Q99816); experiment: qHTS Assay for Iinhibitors of HIV-1 Budding by Blocking the Interaction of PTAP/TSG101: Hit Validation (AID 651600); conditions: PTAP peptide/TSG101 UEV interaction, biochemical assay; series mostly up to 57.5 µM; further: potency means the concentration at half of the fitted maximal effect; nearly all actives have a fitted effect of over 70% in size
# In short: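 Measuring PTAP–Tsg101 interaction by FP: protein at 10 uM and fluorescent peptide at 50 nM (final), buffer 10 mM HEPES pH 7.5 with 0.15 M NaCl, 3 mM EDTA, 0.1 mM TCEP, 0.01% Tween 20; 20 min incubation, r.t.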
# Tags describe the fitted curve by direction and shape or compound fluorescence and quenching.
# Chain of UniProt Q9UNA4 (Q9UNA4 whole entry, looked up): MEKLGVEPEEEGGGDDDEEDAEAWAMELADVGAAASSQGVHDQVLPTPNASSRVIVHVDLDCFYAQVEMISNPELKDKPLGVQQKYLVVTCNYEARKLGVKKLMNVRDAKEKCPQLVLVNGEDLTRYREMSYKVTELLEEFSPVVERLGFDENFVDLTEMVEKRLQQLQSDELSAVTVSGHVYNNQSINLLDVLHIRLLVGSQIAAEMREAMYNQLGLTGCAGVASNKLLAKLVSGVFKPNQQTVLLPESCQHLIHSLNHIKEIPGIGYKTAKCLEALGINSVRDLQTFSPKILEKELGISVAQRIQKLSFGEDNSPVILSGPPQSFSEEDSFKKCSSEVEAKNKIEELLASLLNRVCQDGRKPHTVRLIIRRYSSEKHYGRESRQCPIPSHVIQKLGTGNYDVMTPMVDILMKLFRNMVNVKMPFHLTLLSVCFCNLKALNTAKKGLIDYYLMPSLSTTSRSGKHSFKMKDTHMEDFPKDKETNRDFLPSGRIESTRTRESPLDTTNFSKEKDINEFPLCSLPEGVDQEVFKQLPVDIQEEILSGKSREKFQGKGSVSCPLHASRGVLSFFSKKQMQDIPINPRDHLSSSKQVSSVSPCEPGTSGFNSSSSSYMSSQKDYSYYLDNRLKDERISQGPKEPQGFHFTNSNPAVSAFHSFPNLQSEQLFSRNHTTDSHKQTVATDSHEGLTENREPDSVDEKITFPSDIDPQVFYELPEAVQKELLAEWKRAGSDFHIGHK
# Chain of UniProt O95398 (O95398 whole entry, looked up): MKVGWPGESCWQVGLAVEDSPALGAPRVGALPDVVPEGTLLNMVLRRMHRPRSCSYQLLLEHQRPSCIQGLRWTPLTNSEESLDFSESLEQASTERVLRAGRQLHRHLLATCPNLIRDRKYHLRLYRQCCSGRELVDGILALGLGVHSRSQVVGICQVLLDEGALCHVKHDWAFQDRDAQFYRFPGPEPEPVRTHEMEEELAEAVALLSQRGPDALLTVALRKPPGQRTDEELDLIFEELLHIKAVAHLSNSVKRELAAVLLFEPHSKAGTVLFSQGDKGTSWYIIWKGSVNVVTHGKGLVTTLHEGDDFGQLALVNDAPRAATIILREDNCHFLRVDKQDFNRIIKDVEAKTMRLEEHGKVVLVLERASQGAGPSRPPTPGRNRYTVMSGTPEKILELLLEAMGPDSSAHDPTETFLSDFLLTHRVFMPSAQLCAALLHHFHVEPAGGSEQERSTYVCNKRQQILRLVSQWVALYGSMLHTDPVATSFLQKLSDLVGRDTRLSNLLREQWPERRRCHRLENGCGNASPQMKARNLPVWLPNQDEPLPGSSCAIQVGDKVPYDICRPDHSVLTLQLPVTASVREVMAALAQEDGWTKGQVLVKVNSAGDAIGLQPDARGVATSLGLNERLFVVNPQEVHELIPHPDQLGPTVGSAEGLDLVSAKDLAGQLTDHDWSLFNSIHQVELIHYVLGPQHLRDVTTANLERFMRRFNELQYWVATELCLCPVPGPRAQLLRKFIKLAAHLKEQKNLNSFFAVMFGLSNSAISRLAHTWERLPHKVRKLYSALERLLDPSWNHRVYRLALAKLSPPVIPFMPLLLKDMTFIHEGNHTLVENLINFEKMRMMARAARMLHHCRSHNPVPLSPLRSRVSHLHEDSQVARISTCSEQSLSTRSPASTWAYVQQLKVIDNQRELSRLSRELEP
# Chain of UniProt Q9Y253 (Q9Y253 whole entry, looked up): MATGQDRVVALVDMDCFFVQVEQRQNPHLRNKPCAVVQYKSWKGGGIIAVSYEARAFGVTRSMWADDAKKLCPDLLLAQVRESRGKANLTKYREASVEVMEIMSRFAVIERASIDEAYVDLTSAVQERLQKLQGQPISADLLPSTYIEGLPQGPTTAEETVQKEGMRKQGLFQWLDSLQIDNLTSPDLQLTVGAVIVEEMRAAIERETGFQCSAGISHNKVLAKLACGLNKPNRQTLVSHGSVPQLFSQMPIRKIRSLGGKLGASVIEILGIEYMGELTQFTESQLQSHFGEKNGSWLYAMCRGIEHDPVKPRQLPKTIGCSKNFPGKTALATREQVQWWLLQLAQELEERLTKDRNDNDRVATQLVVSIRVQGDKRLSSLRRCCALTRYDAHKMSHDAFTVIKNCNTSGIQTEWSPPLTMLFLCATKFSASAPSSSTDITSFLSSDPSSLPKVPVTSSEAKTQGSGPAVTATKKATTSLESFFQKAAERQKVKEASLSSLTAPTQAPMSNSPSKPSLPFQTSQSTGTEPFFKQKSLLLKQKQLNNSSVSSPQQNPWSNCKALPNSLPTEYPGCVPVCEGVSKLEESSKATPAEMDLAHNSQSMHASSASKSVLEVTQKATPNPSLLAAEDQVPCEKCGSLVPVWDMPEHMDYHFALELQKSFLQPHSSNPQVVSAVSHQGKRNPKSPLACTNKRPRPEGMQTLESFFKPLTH
# Chain of UniProt Q8WZA2 (Q8WZA2 whole entry, looked up): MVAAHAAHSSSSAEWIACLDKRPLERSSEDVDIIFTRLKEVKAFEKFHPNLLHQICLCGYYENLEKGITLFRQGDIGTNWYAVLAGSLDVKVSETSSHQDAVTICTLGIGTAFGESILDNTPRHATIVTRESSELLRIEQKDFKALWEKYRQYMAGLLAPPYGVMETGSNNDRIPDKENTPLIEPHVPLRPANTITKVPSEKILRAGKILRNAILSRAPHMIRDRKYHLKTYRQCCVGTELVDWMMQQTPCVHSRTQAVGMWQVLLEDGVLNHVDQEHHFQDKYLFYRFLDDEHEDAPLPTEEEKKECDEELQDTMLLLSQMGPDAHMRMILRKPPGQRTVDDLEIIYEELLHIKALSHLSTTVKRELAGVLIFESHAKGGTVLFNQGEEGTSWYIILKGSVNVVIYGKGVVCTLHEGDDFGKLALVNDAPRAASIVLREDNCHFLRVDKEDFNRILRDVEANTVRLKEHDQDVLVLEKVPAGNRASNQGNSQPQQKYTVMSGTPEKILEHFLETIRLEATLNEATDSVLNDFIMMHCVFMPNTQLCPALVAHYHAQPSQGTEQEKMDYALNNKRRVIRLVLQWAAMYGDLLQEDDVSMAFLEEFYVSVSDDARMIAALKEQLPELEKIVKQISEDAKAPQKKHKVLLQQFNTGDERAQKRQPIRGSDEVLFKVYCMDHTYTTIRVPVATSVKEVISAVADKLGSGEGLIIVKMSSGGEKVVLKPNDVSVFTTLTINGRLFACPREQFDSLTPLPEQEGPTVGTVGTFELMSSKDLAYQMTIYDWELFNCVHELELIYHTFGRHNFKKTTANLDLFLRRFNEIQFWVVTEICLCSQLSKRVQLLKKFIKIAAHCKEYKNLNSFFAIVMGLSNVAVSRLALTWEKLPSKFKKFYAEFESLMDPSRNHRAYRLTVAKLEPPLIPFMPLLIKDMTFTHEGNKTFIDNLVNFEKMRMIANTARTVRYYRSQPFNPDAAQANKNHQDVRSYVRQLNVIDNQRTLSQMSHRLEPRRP
# Chain of UniProt O94782 (O94782 whole entry, looked up): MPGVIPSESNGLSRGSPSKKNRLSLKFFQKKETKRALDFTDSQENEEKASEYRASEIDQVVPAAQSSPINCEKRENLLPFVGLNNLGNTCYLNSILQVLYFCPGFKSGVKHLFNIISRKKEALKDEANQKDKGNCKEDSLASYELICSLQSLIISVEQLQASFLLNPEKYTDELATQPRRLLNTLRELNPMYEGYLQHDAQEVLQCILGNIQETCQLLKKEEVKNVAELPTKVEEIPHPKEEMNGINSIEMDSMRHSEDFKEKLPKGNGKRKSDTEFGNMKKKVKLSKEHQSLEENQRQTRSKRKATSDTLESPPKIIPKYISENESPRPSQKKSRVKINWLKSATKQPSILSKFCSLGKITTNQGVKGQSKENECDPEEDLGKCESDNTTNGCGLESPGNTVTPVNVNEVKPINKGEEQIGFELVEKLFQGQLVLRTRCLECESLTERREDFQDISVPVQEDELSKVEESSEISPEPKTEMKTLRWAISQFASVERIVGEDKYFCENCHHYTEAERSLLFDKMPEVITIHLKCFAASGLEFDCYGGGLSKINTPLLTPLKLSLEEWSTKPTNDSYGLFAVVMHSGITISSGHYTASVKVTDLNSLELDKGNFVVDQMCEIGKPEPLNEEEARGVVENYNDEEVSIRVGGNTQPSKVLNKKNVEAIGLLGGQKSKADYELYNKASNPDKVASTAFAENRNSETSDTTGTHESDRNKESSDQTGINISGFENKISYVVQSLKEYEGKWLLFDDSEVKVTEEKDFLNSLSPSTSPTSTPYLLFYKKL
# Chain of UniProt Q99816 (Q99816 whole entry, looked up): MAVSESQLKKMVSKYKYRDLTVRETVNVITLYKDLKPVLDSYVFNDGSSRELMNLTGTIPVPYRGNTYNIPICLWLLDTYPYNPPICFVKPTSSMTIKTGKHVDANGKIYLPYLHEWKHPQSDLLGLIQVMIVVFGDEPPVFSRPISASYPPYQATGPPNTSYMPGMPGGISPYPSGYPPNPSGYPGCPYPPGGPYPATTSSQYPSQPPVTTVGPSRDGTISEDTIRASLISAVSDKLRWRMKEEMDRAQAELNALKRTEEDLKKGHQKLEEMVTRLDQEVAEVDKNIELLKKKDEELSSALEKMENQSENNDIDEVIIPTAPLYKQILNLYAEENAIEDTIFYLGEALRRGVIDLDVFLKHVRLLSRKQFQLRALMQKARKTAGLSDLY
structure (smiles),measurement,setting,value
O=C1Nc2ccccc2/C1=C/c1nc2ccccc2c(=O)n1-c1ccc(O)cc1,Potency,[1],"inconclusive: 75.7 µM [inhibitor, single point]"
same,Potency,[2],active: 35.5 µM
COc1cc2c(cc1-c1cc3cc4ccoc4cc3oc1=O)OCO2,Potency,[3],active: 50.1 µM
same,Potency,[2],"inconclusive: 35.2 µM [inhibitor, partial curve, poor fit]"
CCOC(=O)[C@]12Cc3cc(N(C)C)ccc3[C@H]1N(Cc1ccccc1)C(=O)c1ccccc12,Potency,[4],"inconclusive: 14.1 µM [activator, partial curve, poor fit]"
same,Potency,[5],"inconclusive: 69.8 µM [inhibitor, partial curve]"
CN1CC[C@@]2(C)c3cc(O)ccc3N(C)[C@@H]12,Potency,[1],"inconclusive: 84.9 µM [inhibitor, single point]"
same,Potency,[2],inactive
CC(C)c1ccc(C(c2c(O)c3ccccc3oc2=O)c2c(O)c3ccccc3oc2=O)cc1,"activity change, negative = inhibition",[6],inconclusive: -95.3% [inhibitor]
same,"activity, negative = inhibition",[7],inconclusive: -41.2% [inhibitor] [at 7.69 µM]
same,Potency,[8],"inconclusive: 3.16 µM [inhibitor, single point]"
same,Potency,[9],"inconclusive: 84.4 µM [inhibitor, single point]"
same,Potency,[1],"inconclusive: 95.3 µM [inhibitor, single point]"
same,Potency,[2],active: 15.1 µM
CCN(CC)c1ccc(N=Cc2c(O)n(CCc3ccc(OC)c(OC)c3)c(=O)[nH]c2=O)cc1,Potency,[10],"inconclusive: 89.1 µM [activator, partial curve, poor fit]"
same,Potency,[4],"inconclusive: 11.2 µM [activator, single point]"
CCN1/C(=C/C=C/C2=[N+](CC)c3ccccc3C2(C)C)C(C)(C)c2ccccc21,Potency,[11],active: 67 µM
same,Potency,[12],active: 21.5 µM
same,Potency,[10],active: 56.2 µM
same,Potency,[4],active: 100 µM
same,Potency,[13],active: 10 µM
CCCCN1C(=O)/C(=C/c2ccc(N(C)C)cc2)C(=O)N(Cc2ccco2)C1=O,Potency,[14],"inconclusive: 24.1 µM [inhibitor, partial curve]"
same,Potency,[15],inactive
same,Potency,[2],"inconclusive: 31.6 µM [inhibitor, partial curve]"
COc1ccc(-n2c(O)c(/C=C/C=Nc3ccccc3)c(=O)[nH]c2=O)cc1,Potency,[10],active: 100 µM
same,Potency,[4],active: 89.1 µM
same,Potency,[5],active: 16.9 µM
same,Potency,[13],active: 35.5 µM
O=C(c1ccco1)c1cn(Cc2ccccc2)c2ccccc12,Potency,[10],inactive
same,Potency,[5],"inconclusive: 19 µM [inhibitor, full curve]"
same,Potency,[13],inactive
COC(=O)c1cn(C(=O)c2cccc3ccccc23)c2ccccc12,Potency,[10],inactive
same,Potency,[5],inactive
same,Potency,[13],"inconclusive: 20 µM [activator, single point]"
CN1/C(=C\C=C2C(=O)NC(=S)NC2=O)C(C)(C)c2ccccc21,Potency,[9],"inconclusive: 84.4 µM [inhibitor, single point]"
same,Potency,[10],"inconclusive: 70.8 µM [activator, partial curve, poor fit]"
same,Potency,[13],"inconclusive: 7.08 µM [activator, partial curve, poor fit]"
COc1ccccc1-n1c(-c2cccs2)nc2ccccc2c1=O,Potency,[4],"inconclusive: 79.4 µM [activator, partial curve]"
same,Potency,[13],"inconclusive: 63.1 µM [activator, partial curve, poor fit]"
Cn1cccc1/C=C1\C(=O)NC(=O)N(Cc2ccco2)C1=O,Potency,[16],active: 14.1 µM
same,Potency,[2],"inconclusive: 8.91 µM [inhibitor, full curve]"
O=C1NC(=O)N(Cc2ccc(F)cc2)C(=O)/C1=C\C=C\c1ccco1,Potency,[9],"inconclusive: 75.2 µM [inhibitor, partial curve]"
same,Potency,[2],"inconclusive: 28.2 µM [inhibitor, partial curve]"
O=[N+]([O-])c1ccc(NCc2ccccc2)c2nonc12,Potency,[17],active: 1.03 µM
same,Potency,[10],active: 8.91 µM
same,Potency,[4],active: 100 µM
same,Potency,[13],active: 22.4 µM
COc1cccc(N2C(=O)NC(=O)/C(=C\c3cn(C)c4ccccc34)C2=O)c1,Potency,[10],"inconclusive: 79.4 µM [activator, partial curve]"
same,Potency,[4],active: 100 µM
same,Potency,[5],inactive
same,Potency,[13],"inconclusive: 1.78 µM [activator, full curve, poor fit]"
Cn1cc(C=C2C(=O)NC(=O)NC2=O)c2ccccc21,Potency,[10],active: 79.4 µM
same,Potency,[4],active: 63.1 µM
same,Potency,[5],active: 75.7 µM
same,Potency,[13],inactive
